Reference: the supplement of paper PMC4604168 (melanoma cell lines)
The list shows a part of the results. Single values are uncertain, as repeats are few or missing.

Test system: WM115
Assay: cell count relative to DMSO control; melanoma cells; higher = more viable cells
Conditions: library dose: low library concentration; 72 h
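Also: cell number obtained by counting DAPI-stained nuclei in high-throughput microscope images with image analysis software, screen run in 1,536-well plates.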

| Structure (SMILES) | cell count |
| --- | --- |
| Cc1cc(Nc2cc(N3CCN(C)CC3)nc(Sc3ccc(NC(=O)C4CC4)cc3)n2)n[nH]1 [Tozasertib] + CCc1ccc(CCOc2ccc(CC3SC(=O)NC3=O)cc2)nc1 [pioglitazone] (first compound 0.006 µM, partner dose 2 µM) | 97.6% |
| CC[C@]1(O)C[C@H]2CN(CCc3c([nH]c4ccccc34)[C@@](C(=O)OC)(c3cc4c(cc3OC)N(C=O)[C@H]3[C@@](O)(C(=O)OC)[C@H](OC(C)=O)[C@]5(CC)C=CCN6CC[C@]43[C@@H]65)C2)C1 [vincristine] + COc1cc2ncnc(Nc3ccc(Oc4ccccc4)cc3)c2cc1OC [SrcI1] (first compound 0.0001 µM, partner dose 2 µM) | 24.4% |
| N#CC[C@H](C1CCCC1)n1cc(-c2ncnc3[nH]ccc23)cn1 [ruxolitinib] + O=C(/C=C/c1cccnc1)NCCCCC1CCN(C(=O)c2ccccc2)CC1 [FK866] (first compound 1 µM, partner dose 0.01 µM) | 103% |
| Cc1cc(Nc2cc(N3CCN(C)CC3)nc(Sc3ccc(NC(=O)C4CC4)cc3)n2)n[nH]1 [Tozasertib] + Cc1cc(Nc2cc(N3CCN(C)CC3)nc(/C=C/c3ccccc3)n2)n[nH]1 [ENMD2076] (first compound 0.006 µM, partner dose 0.04 µM) | 96.5% |
| Cc1cc(Nc2cc(N3CCN(C)CC3)nc(Sc3ccc(NC(=O)C4CC4)cc3)n2)n[nH]1 [Tozasertib] + O=c1[nH]nc(Sc2ncc([N+](=O)[O-])s2)n1-c1ccc2c(c1)OCCO2 [BI78D3] (first compound 0.006 µM, partner dose 0.2 µM) | 95.6% |
| N#CC[C@H](C1CCCC1)n1cc(-c2ncnc3[nH]ccc23)cn1 [ruxolitinib] + CN(NC(=O)CC(=O)NN(C)C(=S)c1ccccc1)C(=S)c1ccccc1 [STA4783] (first compound 1 µM, partner dose 0.006 µM) | 103% |
| CC[C@]1(O)C[C@H]2CN(CCc3c([nH]c4ccccc34)[C@@](C(=O)OC)(c3cc4c(cc3OC)N(C=O)[C@H]3[C@@](O)(C(=O)OC)[C@H](OC(C)=O)[C@]5(CC)C=CCN6CC[C@]43[C@@H]65)C2)C1 [vincristine] + COC(=O)c1sccc1S(=O)(=O)Nc1ccc(Nc2ccccc2)cc1OC [GSK0660] (first compound 0.0001 µM, partner dose 1 µM) | 44.5% |
| Cc1cc(Nc2cc(N3CCN(C)CC3)nc(Sc3ccc(NC(=O)C4CC4)cc3)n2)n[nH]1 [Tozasertib] + CC(C)CCN1c2nc(Nc3cc(F)c(O)c(F)c3)ncc2N(C)C(=O)C1C [BID1870] (first compound 0.006 µM, partner dose 0.2 µM) | 74.4% |
| Cc1cc(Nc2cc(N3CCN(C)CC3)nc(Sc3ccc(NC(=O)C4CC4)cc3)n2)n[nH]1 [Tozasertib] + Cc1cn(-c2cc(NC(=O)c3ccc(C)c(Nc4nccc(-c5cccnc5)n4)c3)cc(C(F)(F)F)c2)cn1 [nilotinib] (first compound 0.006 µM, partner dose 0.2 µM) | 101% |
| N#CC[C@H](C1CCCC1)n1cc(-c2ncnc3[nH]ccc23)cn1 [ruxolitinib] + O=C(Nc1ccccc1)c1cc([N+](=O)[O-])ccc1Cl [GW9662] (first compound 1 µM, partner dose 2 µM) | 107% |
| CC[C@]1(O)C[C@H]2CN(CCc3c([nH]c4ccccc34)[C@@](C(=O)OC)(c3cc4c(cc3OC)N(C=O)[C@H]3[C@@](O)(C(=O)OC)[C@H](OC(C)=O)[C@]5(CC)C=CCN6CC[C@]43[C@@H]65)C2)C1 [vincristine] + CC(C)CCN1c2nc(Nc3cc(F)c(O)c(F)c3)ncc2N(C)C(=O)C1C [BID1870] (first compound 0.0001 µM, partner dose 0.2 µM) | 43.8% |
| Cc1cc(Nc2cc(N3CCN(C)CC3)nc(Sc3ccc(NC(=O)C4CC4)cc3)n2)n[nH]1 [Tozasertib] + CCCCCCCCCCCCCCCCCCOP(=O)([O-])OC1CC[N+](C)(C)CC1 [Perifosine] (first compound 0.006 µM, partner dose 0.4 µM) | 104% |
| Cc1cc(Nc2cc(N3CCN(C)CC3)nc(Sc3ccc(NC(=O)C4CC4)cc3)n2)n[nH]1 [Tozasertib] + Cc1cc(N2CCOCC2)cc2[nH]c(-c3c(NC[C@@H](O)c4cccc(Cl)c4)cc[nH]c3=O)nc12 [BMS536924] (first compound 0.006 µM, partner dose 0.2 µM) | 94.9% |
| CC[C@]1(O)C[C@H]2CN(CCc3c([nH]c4ccccc34)[C@@](C(=O)OC)(c3cc4c(cc3OC)N(C=O)[C@H]3[C@@](O)(C(=O)OC)[C@H](OC(C)=O)[C@]5(CC)C=CCN6CC[C@]43[C@@H]65)C2)C1 [vincristine] + O=C(O)c1ccc2c(c1)nc(Nc1cccc(Cl)c1)c1ccncc12 [CX4945] (first compound 0.0001 µM, partner dose 0.4 µM) | 53.9% |
